The structures appear in SMILES notation. In all, about 110,000 compounds were measured (“z-score”: median about -0.1, highest 2% from about 2 on). Some of the results follow.

The experiment addresses Metabotropic glutamate receptor 8 (Rattus norvegicus) (UniProt P70579). Briefly: mGluR8 Gi/Go-coupled signaling modulation – cell-based, rat, thallium flux, HTS, primary screen (AID 488969). Particulars: HEK293 rat mGluR8, GIRK (G protein-gated inwardly rectifying potassium channel) thallium flux, FluoZin2; at 10 µM; stronger effect = higher value; submaximal glutamate (EC20) added with thallium.
UniProt P70579, sequence (P70579 whole entry, looked up): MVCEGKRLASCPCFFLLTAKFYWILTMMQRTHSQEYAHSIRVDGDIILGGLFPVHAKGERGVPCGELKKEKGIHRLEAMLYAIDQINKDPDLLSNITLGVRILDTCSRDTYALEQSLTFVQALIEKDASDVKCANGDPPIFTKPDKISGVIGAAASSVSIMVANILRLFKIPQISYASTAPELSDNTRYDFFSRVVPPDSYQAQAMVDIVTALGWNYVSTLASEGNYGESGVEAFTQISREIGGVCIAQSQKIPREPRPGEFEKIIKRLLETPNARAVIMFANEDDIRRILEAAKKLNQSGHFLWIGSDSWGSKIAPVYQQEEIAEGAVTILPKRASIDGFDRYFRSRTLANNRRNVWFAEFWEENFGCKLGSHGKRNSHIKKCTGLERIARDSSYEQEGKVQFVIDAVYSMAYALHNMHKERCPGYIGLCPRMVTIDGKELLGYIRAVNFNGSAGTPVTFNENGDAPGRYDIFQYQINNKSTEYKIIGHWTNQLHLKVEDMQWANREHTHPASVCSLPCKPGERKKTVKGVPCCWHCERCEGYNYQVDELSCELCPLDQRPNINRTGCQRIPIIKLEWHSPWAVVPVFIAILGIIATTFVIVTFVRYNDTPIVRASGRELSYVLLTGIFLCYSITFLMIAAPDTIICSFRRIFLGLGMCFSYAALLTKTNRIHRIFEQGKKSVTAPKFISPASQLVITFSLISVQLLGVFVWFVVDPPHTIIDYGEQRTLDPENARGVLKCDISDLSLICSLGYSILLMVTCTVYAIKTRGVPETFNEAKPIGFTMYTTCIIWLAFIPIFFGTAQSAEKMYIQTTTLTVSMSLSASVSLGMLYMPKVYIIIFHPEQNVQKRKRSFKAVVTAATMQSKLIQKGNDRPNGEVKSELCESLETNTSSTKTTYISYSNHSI
Consider `O=C(Nc1cc(C(F)(F)F)ccc1Cl)c1cc(C2CC2)on1`, for which the z-score turned out to be 0.161.

`O=C(O/N=C(\c1ccccc1)c1ccccn1)c1ccc(Cl)c(Cl)c1` came in with a z-score of 1.31.

`Cc1ccc(-c2ccc(=O)[nH]n2)cc1` displayed a z-score of 0.0654.

The compound `COc1ccc(N2CCN(C(=O)CSc3ncccc3-c3nc4ccccc4[nH]3)CC2)cc1` showed a z-score of -0.349.

`N/C(Cc1cccc2ccccc12)=N\OC(=O)Cc1cccs1` yielded a z-score of -0.179.

Compound `O=C(Cn1cnc2sc(-c3ccccc3)cc2c1=O)NCc1ccco1` gave a z-score of 0.204.

Compound `CCOC(=O)N/N=C/c1c(C)nn(-c2ccccc2Cl)c1Cl` showed a z-score of 1.92.

For the compound `CCOc1cc(NC(=O)c2ccco2)c(OCC)cc1NC(=O)Cc1ccc(OC)c(OC)c1`, the z-score was -0.0364.

For `CCc1nnc(NC(=O)c2cccc(NC(=O)C(C)C)c2)s1`, the z-score was found to be 0.867.

`O=C1Nc2ccccc2/C1=N/c1sc2c(c1C(=O)NCCc1ccccc1)CCCC2`: the z-score was 0.975.

`COc1cc(/C=C/C(=O)N2C(=O)c3cccc(N)c3C2=O)cc(OC)c1OC` yielded a z-score of -0.0749.

For `CCCc1nc2ccc(NC(=O)c3cccs3)cc2c(=O)n1Cc1ccccc1Cl`, the z-score was -0.354.

Take `COc1cccc(-c2cc(C(=O)NCCCn3ccnc3)no2)c1`: the z-score is -0.58.

As to `Cn1c(SCC(=O)NCC2CCCO2)nnc1-c1c[nH]c2ccccc12` (stereo not drawn), the z-score is -0.0829.

With `Nc1cc(=O)[nH]c(SCC(=O)Nc2ccc(S(=O)(=O)N3CCOCC3)cc2)n1`, the z-score stood at 0.0872.

`CCOC(=O)Cn1nc(-c2ccc(C)cc2)ccc1=O`: the z-score was -0.0724.

Regarding `CCOC(=O)c1cc2ccc(OC)cc2oc1=O`, the z-score is -0.275.

For `O=c1[nH]c(=O)n(Cc2ccco2)c2c1C(C(F)(F)F)(C(F)(F)F)N=C(CCC1CCCCC1)N2`, the z-score came out at 0.103.

The compound `O=C(Nc1cccc(F)c1)C1CCN(C(=O)c2ccc(Br)cc2)CC1` displayed a z-score of -0.354.

`O=C(CSc1ccc(-c2ccc(F)cc2)nn1)N1CCN(c2ccccc2)CC1` gave a z-score of -0.139.

In turn, `Cc1cc(C)nc(NC(=O)c2c(-c3ccccc3Cl)noc2C)n1` gave a z-score of 0.316.

In the case of `O=C(NCc1ccco1)C1CCN(S(=O)(=O)c2cccc3cccnc23)CC1`, the z-score amounted to 0.152.

On to `COC(=O)c1sc2ccccc2c1-n1cccc1C(=O)C(=O)Nc1ccc(F)cc1`, for which the z-score was -0.206.

For the compound `O=C(c1ccco1)N1CCN(c2ncnc3c2oc2ccccc23)CC1`, the z-score was -0.221.

On to `O=C(c1cc(Cl)c(=O)n(Cc2ccccc2)c1)N1CCOCC1`, for which the z-score is -0.0137.

`Clc1cccc(Cl)c1Cn1c(-c2cccnc2Cl)nc2ccccc21` registered a z-score of 0.0546.

On to `COc1ncnc2c1NC1=C(S2)C(=NCCC(=O)O)CC(C)(C)C1`, for which the z-score was -0.837.

`CC(O)CNc1nc2sc3c(c2c(=O)n1CCc1ccccc1)CCCCC3` (stereo not drawn) had a z-score of -0.35.

`COc1ccc(/C=C/C(=O)Nc2cc(C(F)(F)F)ccc2Cl)cc1`: the z-score was -0.669.

`CS(=O)(=O)c1ccc2nc(N)sc2c1` gave a z-score of -0.166.

`Cn1c(NN)nc2sc3c(c2c1=O)CC(C)(C)OC3` yielded a z-score of -0.243.

In the case of `COc1ccc(C2=NN(C(=O)CSc3nc4ccccc4s3)C(c3ccc(OC)cc3)C2)cc1` (stereo not drawn), the z-score was -0.104.

`CCOC(=O)C1CCN(c2c(NCc3ccc(C(=O)NC4CCCC4)cc3)c(=O)c2=O)CC1` returned a z-score of 0.122.

On to `N#Cc1c(N)nc2c(c1N)CC(CO)O2` (stereo not drawn), for which the z-score came to 0.442.

The compound `Cc1c(NC(=O)c2cc(CC(C)C)on2)c(=O)n(-c2ccccc2)n1C` displayed a z-score of 0.425.

For the compound `CC1=C(C(=O)Nc2ccc(Br)cc2)C(c2ccco2)NC(=O)N1` (stereo not drawn), the z-score was -0.0578.

Take `CC(C)(C)C(=O)NC(=S)Nc1ccc(F)cc1`: the z-score is -0.105.

As to `Nc1ccc(C23CC4CC(CC(O)(C4)C2)C3)cc1`, the z-score is -0.112.

Compound `Cc1ccc(NC(=O)CC2SC3=NCCCN3C2=O)c(C)c1` (stereo not drawn) displayed a z-score of -0.162.

Consider `CCOC(=O)N1CCN(C(=O)CN(c2ccc(OCc3ccccc3)cc2)S(C)(=O)=O)CC1`, for which the z-score came to 0.0453.

Regarding `Cc1cccn2c(=O)c3cc(C(=O)NCC4CCCO4)c(=N)n(CCN4CCOCC4)c3nc12` (stereo not drawn), the z-score is -0.225.

Turning to `Cc1ccc(S(=O)(=O)N2CCCCC2)cc1NC(=O)Cc1c[nH]c2ccccc12`, the z-score is -0.0663.

In turn, `COC(=O)c1cc2c(s1)-c1ccccc1CC2` gave a z-score of -0.0379.

As for `CC1CCN(CCc2nc3cc(NS(=O)(=O)c4ccc(F)cc4)ccc3n2C)CC1`, the z-score is -0.615.

On to `Cn1c(=O)c2[nH]cnc2n(-c2ccccc2)c1=O`, for which the z-score is -0.142.

Regarding `COCCCNS(=O)(=O)c1ccc2c3c(cccc13)C(=O)S2`, the z-score is -0.0688.

Compound `CCOC(=O)Nc1ccc2c(c1)N(C(=O)CCN1CCN(CCO)CC1)c1ccccc1CC2` showed a z-score of -0.118.

In the case of `COc1cc(=O)n(C)c2ccccc12`, the z-score is 0.577.

In turn, `Oc1ccc(-c2csc(Nc3cccnc3)n2)cc1` displayed a z-score of -0.116.

In turn, `Cc1cc(=O)c(C(=O)O)cn1Nc1ccc(Cl)cc1` returned a z-score of -0.553.

As for `CCC(c1nnnn1Cc1ccccc1)N(Cc1cc2cc(OC)ccc2[nH]c1=O)CC1CCCO1` (stereo not drawn), the z-score was -0.388.

As to `COc1ccccc1Oc1ccc(S(=O)(=O)Nc2cccnc2)cc1`, the z-score came out at 0.347.

The compound `Cc1cc(NC(=O)c2ccc(F)cc2F)n(-c2nc3ccccc3[nH]2)n1` registered a z-score of 0.0238.

On to `COc1ccc(CCNC(=O)C2CCN(S(=O)(=O)c3cccc4nonc34)CC2)cc1OC`, for which the z-score is -0.0875.

`COc1ccc(C)c2sc(NC(=O)C3=COCCO3)nc12` had a z-score of -0.0797.

The compound `Cc1cc(Cl)ccc1NC(=S)N1CCN(Cc2ccccc2)CC1` displayed a z-score of 0.0495.

`O=C(/C=C/c1cccc(Cl)c1)Nc1ncccn1`: the z-score is -0.216.

On to `CC(NC(=O)COc1ccc(/C=N/NS(=O)(=O)c2ccccc2)cc1)c1ccccc1` (stereo not drawn), for which the z-score is -0.17.

The compound `Cc1cccc(NC(=S)NCC2CCCO2)c1` (stereo not drawn) gave a z-score of 0.0836.

As for `Cc1cc(OCc2nn[nH]n2)c2c(C)c(CC(=O)O)c(=O)oc2c1`, the z-score was determined as 1.62.

`COc1cc(C)ccc1OCCOc1cc(C)ccc1Cl` registered a z-score of -0.0859.

With `Nc1c(-c2cccs2)cnn1-c1nc(-c2ccc(F)cc2)cs1`, the z-score was -0.78.

In turn, `CCOC(=O)CSc1nnc(Cc2cc(=O)[nH]c(=O)[nH]2)n1-c1ccc(Cl)cc1` registered a z-score of -0.0375.

Consider `COc1ccc(Cn2c(-c3ccco3)nc3oc4ccccc4c(=O)c3c2=O)cc1`, for which the z-score was 0.403.

For `CCc1ccc(C2CC(c3ccccc3)n3ncnc3N2)cc1` (stereo not drawn), the z-score was -0.471.

`O=C(CCNC(=O)Cn1cnc2ccccc2c1=O)NCC1COc2ccccc2O1` (stereo not drawn) registered a z-score of -0.166.

Consider `COc1ccc(CCNC(=O)c2ccc(-c3ccc([N+](=O)[O-])cc3)o2)cc1OC`, for which the z-score was -0.544.

The compound `CN(CC(O)COc1ccc(OCC(O)CN(C)C2CCCCC2)cc1)C1CCCCC1` (stereo not drawn) came in with a z-score of 1.64.

For the compound `COc1ccc(Nc2c(C)cccc2C)cc1`, the z-score was -0.447.

`O=C(Nc1ncc2c(n1)-c1ccccc1OC2)c1ccc(Cl)cc1Cl` showed a z-score of -0.199.

As for `CCOc1ccccc1-n1c(SCC(=O)N2CCCC2)nnc1-c1ccc(O)cc1`, the z-score was -1.47.

With `N#C/C(=N\Nc1ccc(Cl)cc1)C(=N)N1CCCCC1`, the z-score was 0.186.

The compound `O=C(NNC1=C(C(=O)C(F)(F)F)CCC1)c1cccc(O)c1` gave a z-score of 0.0367.

Compound `Cc1c(Cl)cccc1NC(=O)CN1CCC(NC(=O)C2CCCCC2)CC1` yielded a z-score of 0.0323.

Compound `CCOc1ccc(C(=O)NC(=S)N2CCN(c3ccc(C(F)(F)F)cc3[N+](=O)[O-])CC2)cc1` registered a z-score of 0.854.

In the case of `COc1ccc(N2CCN(C(=S)Nc3cc(C)cc(C)c3)CC2)cc1`, the z-score is 0.06.

`COc1ccccc1NC(=O)CSc1c2c(nc3ccccc13)CCC2` showed a z-score of 0.169.

`Cc1cc(C)cc(N(CC(=O)NCC2CCCO2)S(=O)(=O)c2c(C)noc2C)c1` (stereo not drawn) displayed a z-score of -0.496.

On to `O=Cc1cn(-c2ccccc2)nc1-c1cc2cc(O)ccc2oc1=O`, for which the z-score worked out at 0.061.

For `CC(=O)C1=C(O)C(=O)N(CCCn2ccnc2)C1c1ccc(C)cc1` (stereo not drawn), the z-score is -0.414.

Compound `COC(=O)c1ccc(NC(=O)C(C)N2C(=O)c3ccccc3C2=O)cc1` (stereo not drawn) showed a z-score of 0.169.

In the case of `CCOC(=O)CSc1nc2ccccc2c(=O)n1CCC(=O)NCCc1ccc(OC)c(OC)c1`, the z-score was -0.859.

For `Cc1c(NC(=O)CSc2nc3ccccc3[nH]2)c(=O)n(-c2ccccc2)n1C`, the z-score was -0.097.

Compound `O=C(N/N=C/C=C/c1ccccc1)c1cnccn1` showed a z-score of -0.12.

Take `CCOC(=O)c1cccc(NC(=O)CSc2nnc(CNc3ccc(C)cc3)n2CC)c1`: the z-score is -2.75.

As to `Cc1csc(NC(=O)CSc2nc3sc(C)c(C)c3c(=O)[nH]2)n1`, the z-score amounted to 0.981.

`O=C(Cn1c2ccccc2c(=O)c2cc([N+](=O)[O-])ccc21)Nc1ccccc1Cl` yielded a z-score of -0.278.

On to `CSc1ccc(-c2nc(CSCC(=O)NCCCN3CCOCC3)c(C)o2)cc1`, for which the z-score is -0.116.

For the compound `Cc1ccc(NC2=C/C(=N\S(=O)(=O)c3cccs3)c3ccccc3C2=O)c(C)c1`, the z-score worked out at 0.224.

The compound `O=C(Nc1ccc2c(c1)OCCO2)NC12CC3CC(CC(C3)C1)C2` returned a z-score of 2.32.

Take `c1ccc(SCc2nc3ccccc3[nH]2)nc1`: the z-score amounted to 0.0372.

Turning to `Fc1ccc(CNc2nc3ccccc3n3nnnc23)cc1`, the z-score is -0.251.

Take `CCCOc1ccc(C2=NNC(c3cccs3)=Nc3ccc(OC)cc32)cc1`: the z-score was -0.471.

For `O=C(Nc1ccc(N2CCCC2)cc1)c1cccc(-c2cc3ccccc3oc2=O)c1`, the z-score was -0.0126.

Take `O=C(C(Cc1ccccc1)n1cccc1)N1CCN(c2cccc(Cl)c2)CC1` (stereo not drawn): the z-score was -0.168.

In turn, `COc1ccc(N2C(=O)C3CCCN3C2=O)cc1` (stereo not drawn) displayed a z-score of 0.0142.

`CC(=O)c1ccc(NC(=O)C2(c3ccccc3)CCOCC2)cc1`: the z-score was -0.339.

In turn, `CCC(CO)NC1=C([N+](=O)[O-])C(=O)CC(C)(C)C1` (stereo not drawn) yielded a z-score of 0.08.

In turn, `CN(C)S(=O)(=O)c1cccc(NC(=O)COc2nc3ccccc3nc2N2CCOCC2)c1` displayed a z-score of -1.5.

With `CN(C)CCCNC(=S)N1CCn2c(nc3ccccc32)C1`, the z-score was found to be 0.00738.

`CCn1c(=O)cc(OCC(=O)NCc2ccc(C)o2)c2ccccc21` returned a z-score of -0.239.

In turn, `Cc1cnc(Sc2ncccc2[N+](=O)[O-])nc1` had a z-score of -0.0644.

Compound `O=C(OCc1nc2scc(-c3ccccc3)c2c(=O)[nH]1)c1cc([N+](=O)[O-])ccc1Cl` yielded a z-score of -1.44.

With `Cc1c(Br)c([N+](=O)[O-])nn1CCCC(=O)N1CCN(c2ccccc2)CC1`, the z-score was 0.334.

Turning to `CCCCC(=O)Nc1ccc(NC(=O)c2cc(OC)c(OC)c(OC)c2)cn1`, the z-score is -0.00813.

The compound `CC1=NN(C(=O)c2ccc(Cn3nc(C)cc3C)o2)C(O)(C(F)(F)F)C1` (stereo not drawn) gave a z-score of -0.123.

In turn, `CC1CCCCC1NC(=O)c1ccc(S(=O)(=O)N2CCCC2)cc1` (stereo not drawn) returned a z-score of -0.425.

As for `C=C(C)c1ccc(C(C)(C)NC(=O)N(Cc2ccccc2)Cc2ccco2)cc1`, the z-score is -0.294.
